From article PMC4336329 (PLoS ONE, 2015)
Hit rate of the full screen: of about 310,000 compounds, about 2,200 (0.71%) showed an effect of 50% or more. The effect is printed as a negative number. This is one part of the list. Where a SMILES comes first, the peptide text is derived from it. [ ]: non-standard residue; d: D form. The star is where a group is joined. ξ: configuration not given here. ξF = NC(Cc1ccccc1)C(=O)O; Cbz = O=C(OCc1ccccc1)*

Target: human ether-à-go-go-related gene (hERG) potassium channel (human, UniProt Q12809)
Sequence (Q12809 whole entry, looked up): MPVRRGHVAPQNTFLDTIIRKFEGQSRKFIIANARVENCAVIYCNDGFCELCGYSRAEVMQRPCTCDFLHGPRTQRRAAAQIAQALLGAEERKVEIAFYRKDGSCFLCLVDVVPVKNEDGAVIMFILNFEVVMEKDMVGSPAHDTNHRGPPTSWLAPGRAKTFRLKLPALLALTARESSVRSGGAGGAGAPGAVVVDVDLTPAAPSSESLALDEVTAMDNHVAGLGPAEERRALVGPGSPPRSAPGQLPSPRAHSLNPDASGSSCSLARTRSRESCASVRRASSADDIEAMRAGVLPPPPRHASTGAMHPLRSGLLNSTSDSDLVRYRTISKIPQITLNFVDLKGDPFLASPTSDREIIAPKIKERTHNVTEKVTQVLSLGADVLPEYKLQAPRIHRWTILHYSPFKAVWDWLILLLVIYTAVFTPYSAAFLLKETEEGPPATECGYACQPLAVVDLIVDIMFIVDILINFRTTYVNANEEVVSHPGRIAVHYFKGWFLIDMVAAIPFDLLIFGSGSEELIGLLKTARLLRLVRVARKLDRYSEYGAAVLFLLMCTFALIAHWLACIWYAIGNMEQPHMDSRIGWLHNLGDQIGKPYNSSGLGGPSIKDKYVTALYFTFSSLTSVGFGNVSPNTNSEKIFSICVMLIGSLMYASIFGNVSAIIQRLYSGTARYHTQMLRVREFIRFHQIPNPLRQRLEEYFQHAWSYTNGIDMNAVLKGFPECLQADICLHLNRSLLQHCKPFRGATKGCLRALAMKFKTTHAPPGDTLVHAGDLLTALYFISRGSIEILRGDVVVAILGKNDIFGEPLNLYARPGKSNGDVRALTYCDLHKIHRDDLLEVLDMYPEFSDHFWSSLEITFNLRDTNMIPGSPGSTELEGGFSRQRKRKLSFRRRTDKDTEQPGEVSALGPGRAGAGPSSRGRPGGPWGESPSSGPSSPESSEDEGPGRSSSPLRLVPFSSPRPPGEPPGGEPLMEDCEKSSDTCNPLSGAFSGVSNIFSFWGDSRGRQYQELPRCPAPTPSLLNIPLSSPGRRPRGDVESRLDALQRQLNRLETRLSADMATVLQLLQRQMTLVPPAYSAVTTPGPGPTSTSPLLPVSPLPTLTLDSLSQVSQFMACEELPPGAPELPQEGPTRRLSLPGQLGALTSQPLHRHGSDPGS
Test: primary screen, population patch clamp on CHO cells stably expressing hERG

Structure (SMILES) | hERG current change (%, negative = inhibition) at 1uM [%]
C/C(=N/Nc1nc(C)cc(C)n1)c1ccc(Br)cc1 | 10.1
O=c1c2ccccc2nc(-c2ccc(Cl)cc2)n1C1CCS(=O)(=O)C1 (stereo not shown) | 12.8
CC(C)CNC(=O)CSc1nc(-c2cccs2)cc(C(F)(F)F)n1 | 0.741
Cc1ccc2c(c1)N(CC(=O)NCc1ccco1)C(=O)CO2 | 0.956
CO[C@@]1(NC(=O)Cc2cccs2)C(=O)N2C(C(=O)[O-])=C(COC(N)=O)CS[C@@H]21.[Na+] | 15.4
O=C(OCc1nnc(-c2ccccc2)o1)c1cccc(S(=O)(=O)N2CCOCC2)c1 | -0.299
COc1cccc(-c2cc(C(=O)Nc3ccc4c(c3)OCO4)no2)c1 | 19.5
O=S(=O)(NCc1ccc(Cl)cc1)c1cccc2cccnc12 | 8.39
CN1C(=O)C(C2c3ccccc3C(=O)N2Cc2ccccc2)C(=O)N(C)C1=O (stereo not shown) | 3.31
CCOC(=O)CCCSc1nc2sc(C)c(C)c2c(=O)[nH]1 | 19.7
O=C(NCC(c1ccco1)N1CCCC1)c1ccccc1Sc1ccc(C(F)(F)F)cc1[N+](=O)[O-] (stereo not shown) | 4.07
COc1ccc(NC(=S)NCc2ccccc2)c(OC)c1 | 15.7
O=Cc1coc2c(ccc3ccccc32)c1=O | 8.98
COCCNC(=O)c1ccc(CS(=O)(=O)c2ccccc2C)o1 | 11.1
CCOc1ccccc1N1CCN(C(=O)c2cc(S(=O)(=O)N3CCCCC3)ccc2C)CC1 | 0.805
O=C(C1=C[C@@H](c2csc3ccccc23)C[C@@H](OCCCCO)O1)N1CCN(Cc2ccc3c(c2)OCO3)CC1 | 6.06
COc1ccc(C)cc1NS(=O)(=O)c1ccc2c(c1)N(C)CCO2 | 9.08
O=C(Cc1ccc([N+](=O)[O-])cc1)Nc1ccon1 | 9.48
CCOC(=O)N1CCC2(CC1)C(C#N)=C(N)OC1=C2C(=O)CCC1 | 9.95
O=C(CCCOc1ccc(Br)cc1)NCCc1ccc(OC(F)F)cc1 | -4.05
O=C(c1cc2cc(Br)ccc2o1)N1CCCCC1 | 1.01
COc1cc(C(=O)N2CCNCC2)cc(OC)c1OC.O=C(O)C(F)(F)F | 15.5
O=C(O)c1cc2c(cc1NC(=O)c1ccccc1C(F)(F)F)OCCCO2 | 9.26
CSC1=NCCN1C(=O)c1ccc2ccccc2c1 | 13.5
CCC1SC(=NC(=O)c2ccc(Cl)c(Cl)c2)NC1=O (stereo not shown) | 6.6
CS(=O)(=O)N1CCN(c2ccccc2NC(=O)Cc2ccc(Cl)cc2)CC1 | 1.26
COc1cc(/C=C2/C(=O)NN(c3cccc(Cl)c3)C2=O)cc(OC)c1O | 8.86
CC(=O)CC1(O)C(=O)Nc2ccccc21 (stereo not shown) | 17.1

Structure (SMILES) | hERG current change (%, negative = inhibition) at 1uM [%]
Cc1cc(C)c(NC(=O)CSc2nnc(CNC(=O)c3ccccc3F)o2)c(C)c1 | 7.46
CCOC(=O)CNC(=O)C(Cc1ccccc1)NC(=O)OCc1ccccc1 (stereo not shown) (Cbz-[ξF]-Gly-OEt) | -9.79
CCn1cc(CN2CCC(C(=O)Nc3cccc(-c4cccc(F)c4)c3)CC2)cn1 | -29.2
CC(=O)N(C)C1(c2nnnn2CCOC(=O)Nc2cccc3ccccc23)CCCC1 | 2.05
O=C(CCN1C(=O)/C(=C/c2ccccc2)SC1=S)N1CCCCCC1 | 9.27
O=C(O)CCN1C(=O)c2ccc(NC(=O)C(c3ccccc3)c3ccccc3)cc2C1=O | 14.6
COc1cc(OC)c(C(=O)NC2CCCc3ccccc32)cc1OC (stereo not shown) | 10.2
N#C/C(=C\c1ccc(OC(=O)c2ccc(Br)s2)cc1)c1nc2ccccc2[nH]1 | 11.7
CC1CCN(C(=O)c2ccc3c(c2)OCO3)CC1 | 19.6
CCCCOC(=O)CN1C(=O)c2ccc(C(=O)OCCCC)cc2C1=O | 11
Cl.O=C(c1ccc(NS(=O)(=O)c2cccs2)cc1)N1CCN(c2ccccc2Cl)CC1 | 11.1
COc1cc(-c2cc(C(=O)Nc3cccc(C(C)=O)c3)c3ccccc3n2)cc(OC)c1OC | 12.5
O=C(NCCN=C1NS(=O)(=O)c2ccccc21)c1ccncc1 | 2.93
COC(=O)CCC(=O)NNC(=O)c1ccc(Br)cc1 | 8.83
Cc1cccc(NC(=O)Cn2cccc2)c1 | 6.74
O=C(CSc1nc(-c2ccco2)cc(C(F)(F)F)n1)Nc1ccccc1C(F)(F)F | -2.77
COc1ccc(S(=O)(=O)N2CCCOC2CNC(=O)C(=O)NCCCN2CCOCC2)cc1C (stereo not shown) | 13.5
CC(CNC(=O)COC(=O)c1ccco1)c1ccccc1 (stereo not shown) | 6.17
CC(Oc1ccc(Cl)cc1Cl)C(=O)NNC(=O)c1ccncc1 (stereo not shown) | -0.0897
CSc1cccc(NS(=O)(=O)c2ccccc2)c1 | 10.3
CC1CCN(C(=O)CSc2nnc(Cc3cc(=O)[nH]c(=O)[nH]3)n2-c2ccc(Cl)cc2)CC1 | 6.13
COc1cccc(N(C(=O)c2sc(C)nc2C)C(C(=O)NCC2CCCO2)c2ccccc2)c1 (stereo not shown) | 8.09
CSCCC(NC(=O)c1ccc([N+](=O)[O-])cc1Cl)C(=O)OCC(=O)NCC(F)(F)F (stereo not shown) | 1.6
O=C(N/N=C/c1c[nH]c2ccccc12)c1ccc(Br)cc1 | 8.89
Cc1ccccc1-n1c(C)nnc1SCC(=O)NNC(=O)c1ccccc1 | 9.37
CSc1nncc(-c2ccccc2)n1 | 4.91
CCN(Cc1ccc(OC)c(F)c1)C(=O)/C=C/c1ccc(S(=O)(=O)N2CCOCC2)cc1 | 0.639
